Data as given in patent publication US20090306091A1, “ANTIMALARIAL THERAPY USING A COMBINATION OF SYNTHETIC ARTEMISININ DERIVATIVE AND BISQUINOLINE DERIVATIVE” (priority 2006, published 2009).

Legend:
[1] = tested on: female rabbits; experiment: Embryo-fetal assessment study in female rabbits, oral administration (ICH guideline, GLP)
[2] = tested on: female rats; experiment: Embryo-fetal assessment study in female rats, oral administration (ICH guideline, GLP); assay type: in vivo, rat
Description: Further, abnormal findings viz., interventricular septal defect (5 fetuses), aortic arch dilated (6 fetuses), ductus arteriosus and/or pulmonary trunk narrowed (5 fetuses), spleen reduced in size (4 fetuses) were noticed.

[3] = female rats, oral, 10, 30 and 90 mg/kg/day

SMILES: CC(C)(N)CNC(=O)CC1CCC2(CC1)OOC1(O2)C2CC3CC(C2)CC1C3 (stereo not drawn)
- found dead on day 19 pc ([1]; female rabbits, 90 mg/kg/day): one
- labored respiration ([1]; female rabbits, 90 mg/kg/day): four
- reduction in food consumption compared with the vehicle control ([1]; female rabbits, 90 mg/kg/day): −27.3%
- fetal weight ([1]; female rabbits, 90 mg/kg/day (32.7 g in the vehicle control)): 31.5 g
- mean body weight development ([1]; female rabbits, 90 mg/kg/day (+2.4% in the vehicle control)): +0.1%
- NOEL (no observed effect level) for maternal organisms ([1]; female rabbits, oral): 10 mg/kg body weight/day
- accumulation after repeated dosing ([1]; female rabbits, oral, 10, 30 and 90 mg/kg/day): no accumulation
- NOEL for fetal organisms ([1]; rabbits, oral): 30 mg/kg body weight/day
- embryofetal risk compared with artesunate ([2]; conclusion from the rat and rabbit studies against reported artesunate data): comparatively better than Artesunate
- aortic arch dilated ([2]; female rats, 90 mg/kg/day): 6 fetuses
- ductus arteriosus and/or pulmonary trunk narrowed ([2]; female rats, 90 mg/kg/day): 5 fetuses
- interventricular septal defect ([2]; female rats, 90 mg/kg/day): 5 fetuses
- post-implantation loss ([2]; female rats, 90 mg/kg/day): 10/22
- reduction in mean food consumption compared with the vehicle control ([2]; female rats, 90 mg/kg/day): −10.7%
- spleen reduced in size ([2]; female rats, 90 mg/kg/day): 4 fetuses
- fetal weight ([2]; female rats, 90 mg/kg/day (4.8 g in the vehicle control)): 4.1 g
- litter size ([2]; female rats, 90 mg/kg/day (13.6 in the vehicle control)): 8.2 fetuses per dam
- body weight gain ([2]; female rats, 90 mg/kg/day (74 g in the vehicle control)): 57 g
- changes in food consumption, mean body weight, reproductive parameters and fetus weight ([2]; female rats, 10 and 30 mg/kg/day): no changes
- effects on fetal sex ratios, at fresh external examination or at skeletal examination ([2]; female rats, all dose levels): No test item-related effects
- NOEL (no observed effect level) for maternal organisms and reproductive parameters ([2]; female rats, oral): 30 mg/kg body weight/day
- accumulation after repeated dosing [2, 3]: no accumulation
- test item-related clinical signs, signs of discomfort and gross changes [2, 3]: no test item-related clinical signs, signs of discomfort and gross changes
- NOEL (no observed effect level) for fetal organisms ([2]; rats, oral): 10 mg/kg body weight/day
